“And” between values parts separate entries of the source, which are not always exact repeats. Equal values may be shown once. Hit rate of the full screen: of about 350,000 compounds, about 31,000 (8.9%) were called active. The shares of active, inactive and inconclusive entries below differ from those in the screen. The call rests on the fitted dose curve; in most records, active means well fitted inhibition curve with a large enough effect; inconclusive means small, poorly fitted or top-dose-only effect; inactive means no such curve, though single readings can be large or run the other way. Potencies of inconclusive entries are doubtful fits and often do not repeat.
target: Histone-lysine N-methyltransferase EHMT2 (Homo sapiens) (UniProt Q96KQ7); assay: qHTS Assay for Inhibitors of Histone Lysine Methyltransferase G9a; conditions: G9a H3K9 monomethylation, AlphaScreen, 2 h; activity, negative = inhibition: at 59 µM (top of the series) unless noted; further: nearly all actives have a fitted effect of over 75% in size
Procedure, shortened: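 Methyltransferase reactions run at room temperature for 2 h (20 nM enzyme, 500 nM biotin-H3K9 peptide, 20 uM SAM) after a 15 min compound preincubation; product detected by AlphaScreen beads and anti-H3K9me1 antibody.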
On the % scale 0 is the no-effect control and ±100 the full control effect; potency means the concentration at half of the fitted maximal effect; tags describe the fitted curve by direction and shape.

Sequence of UniProt Q96KQ7 (Q96KQ7 whole entry, looked up): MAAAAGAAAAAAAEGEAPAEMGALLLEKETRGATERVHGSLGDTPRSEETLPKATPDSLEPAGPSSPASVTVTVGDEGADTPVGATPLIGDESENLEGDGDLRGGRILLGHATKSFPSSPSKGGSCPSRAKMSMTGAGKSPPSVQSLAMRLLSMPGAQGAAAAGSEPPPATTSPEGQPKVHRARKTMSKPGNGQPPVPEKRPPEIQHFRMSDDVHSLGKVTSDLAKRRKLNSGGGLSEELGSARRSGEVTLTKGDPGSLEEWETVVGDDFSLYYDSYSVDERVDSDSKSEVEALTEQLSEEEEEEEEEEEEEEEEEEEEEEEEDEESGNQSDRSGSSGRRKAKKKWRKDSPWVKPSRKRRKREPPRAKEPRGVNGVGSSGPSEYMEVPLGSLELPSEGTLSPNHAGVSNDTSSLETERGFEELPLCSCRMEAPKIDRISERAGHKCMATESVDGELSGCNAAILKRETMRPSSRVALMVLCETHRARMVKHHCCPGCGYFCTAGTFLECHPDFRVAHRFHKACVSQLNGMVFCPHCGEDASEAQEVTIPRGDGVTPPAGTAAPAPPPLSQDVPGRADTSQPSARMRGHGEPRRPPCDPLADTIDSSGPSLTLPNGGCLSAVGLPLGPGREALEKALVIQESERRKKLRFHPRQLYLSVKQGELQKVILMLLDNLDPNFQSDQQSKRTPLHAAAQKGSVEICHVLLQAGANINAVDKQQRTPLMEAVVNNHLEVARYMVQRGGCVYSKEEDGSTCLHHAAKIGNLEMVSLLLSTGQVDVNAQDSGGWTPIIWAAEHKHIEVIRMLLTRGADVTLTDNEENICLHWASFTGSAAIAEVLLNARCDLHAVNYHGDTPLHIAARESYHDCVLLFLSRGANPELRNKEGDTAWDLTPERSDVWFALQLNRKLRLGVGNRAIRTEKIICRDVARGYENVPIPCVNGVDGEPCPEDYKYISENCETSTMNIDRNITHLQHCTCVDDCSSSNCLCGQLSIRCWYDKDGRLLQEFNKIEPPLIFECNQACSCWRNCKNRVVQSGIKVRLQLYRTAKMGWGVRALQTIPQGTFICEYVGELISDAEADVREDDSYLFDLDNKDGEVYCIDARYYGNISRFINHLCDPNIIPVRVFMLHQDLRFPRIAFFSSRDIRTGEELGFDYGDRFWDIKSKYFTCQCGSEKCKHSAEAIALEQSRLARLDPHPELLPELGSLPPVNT

| Compound | Potency | activity, negative = inhibition |
| --- | --- | --- |
| FC(F)(F)c1ccc(Cl)c(-n2c(-c3cc(C4CC4)[nH]n3)n[nH]c2=S)c1 | active: 8.91 µM |  |
| CC1=C(C(=O)Nc2ccc(C)cc2C)C(c2ccc(O)cc2)n2nc(SCC(=O)c3ccc(C)cc3)nc2N1 (configuration not stated) |  | inactive: -4.21% |
| Cn1c(Nc2ccc(Cl)cc2)cc(=O)n(C)c1=O | inconclusive: 39.8 µM [inhibitor, single point] and inconclusive: 89.1 µM [inhibitor, single point] |  |
| COc1ccc(C(=O)NCC(=O)NC2=NCCS2)cc1 | inconclusive: 39.8 µM [inhibitor, single point] |  |
| CC1CC(C)(C)NC(=S)N1CC(=O)NCc1ccc(F)cc1 (configuration not stated) | inconclusive: 50.1 µM [inhibitor, partial curve, poor fit] |  |
| Cc1cc(N2C(=O)C(O)=C(C(=O)c3cc4ccccc4o3)C2c2ccc(Br)cc2)no1 (configuration not stated) | active: 1.58 µM |  |
| COc1ccc(-c2nc(Cn3c(SCc4cccc(C(F)(F)F)c4)nc4cccnc43)c(C)o2)cc1OC | inconclusive: 10 µM [inhibitor, partial curve] |  |
| Cc1cc(S(=O)(=O)Nc2ccc(C(=O)O)cc2)c(C)c(S(=O)(=O)c2ccc(Cl)cc2)c1 |  | inactive: -3.7% |
| CN(C)CCn1c(=O)n(-c2cccc(Cl)c2)c(=O)c2c3c(sc21)CCCCC3 | inconclusive: 44.7 µM [inhibitor, partial curve] |  |
| COc1cccc(NS(=O)(=O)c2ccc3c(c2)N(C)C(=O)CC(=O)N3C)c1 | inconclusive: 39.8 µM [inhibitor, partial curve, poor fit] |  |
| COc1cc(/C=C2/N=C(C3CCCCC3)OC2=O)cc(OC)c1OC |  | inactive: -47% |
| CCc1nnc2c(Nc3ccc(N(CC)CC)cc3C)nc3ccccc3n12 | active: 17.8 µM |  |
| O=C(Nc1ccccc1N1CCCC1)c1cccc(Cl)c1Cl |  | inactive: 19.5% [at 12.7 µM] |
| CCCC(=O)c1ccc(N2CCC(C)CC2)c(F)c1 |  | inactive: 84.3% [at 102 µM] |
| O=C(Nc1ccccc1N1CCCC1)c1ccc2ccccc2c1 | active: 44.7 µM |  |
| Fc1ccc(-c2csc(=S)[nH]2)cc1 | inconclusive: 3.98 µM [inhibitor, full curve, poor fit] |  |
| CCCS(=O)(=O)c1nc(S(=O)(=O)c2ccc(C)cc2)c(NCCCN2CCOCC2)s1 | inconclusive: 1.12 µM [inhibitor, single point] |  |
| CC(C)Cc1nn2c(=O)cc(COC(=O)c3ccccc3NC(=O)C3CCCCC3)nc2s1 | inconclusive: 28.2 µM [inhibitor, partial curve, poor fit] |  |
| O=C(CS(=O)(=O)Cc1ccccc1)N1CCc2ccccc2C1 | inconclusive: 56.2 µM [inhibitor, partial curve, poor fit] |  |
| Nc1nc(SCCO)[nH]c(=O)c1NC(=O)c1ccccc1F | inconclusive: 89.1 µM [inhibitor, single point] |  |
| COCC(C)n1c(SCC(=O)NC(=O)Nc2ccc3c(c2)OCCO3)nc2ccccc2c1=O (configuration not stated) |  | inconclusive: -66.3% [inhibitor] |

| Compound | Potency | activity, negative = inhibition |
| --- | --- | --- |
| O=C(O)CC12CC3CC(C1)CC(n1ncc(NCc4ccccc4Cl)c(Cl)c1=O)(C3)C2 | inconclusive: 100 µM [inhibitor, partial curve, poor fit] |  |
| COC(=O)c1ccccc1NC(=O)c1cc2nc(C3CC3)cc(C(F)(F)F)n2n1 | inconclusive: 79.4 µM [inhibitor, partial curve, poor fit] |  |
| C/C=C\C=C\C(=O)Nc1cccc(C2=NOC3(C2)C[C@@H](C(N)=O)N(C(=O)C(c2ccccc2)c2ccccc2)C3)c1 (some centres not stated) |  | inconclusive: -54% [inhibitor] [at 12.7 µM] |
| COC(=O)c1c(NC(=O)c2cccnc2Cl)sc(C(=O)N(C)C)c1C | inconclusive: 89.1 µM [inhibitor, single point] |  |
| Cc1cccc(Oc2nc3ccccn3c(=O)c2/C=C(\C#N)C(=O)NC2CCS(=O)(=O)C2)c1 (configuration not stated) | inconclusive: 0.355 µM [inhibitor, full curve] |  |
| COc1ccc(NC(=O)c2cc3c(CO)cnc(C)c3oc2=Nc2cccc(C)c2)c(OC)c1 | inconclusive: 89.1 µM [inhibitor, single point] |  |
| Cc1cccn2c(=O)nc(SCC(=O)Nc3ccc4c(c3)OCCO4)nc12 | inconclusive: 89.1 µM [inhibitor, single point] |  |
| Cn1cccc1C(=O)OCc1csc(-c2ccccc2)n1 | inconclusive: 39.8 µM [inhibitor, partial curve, poor fit] |  |
| CC(=O)Nc1ccc(/C=N/Nc2nc3ccccc3[nH]2)cc1 |  | inactive: -34.8% [at 102 µM] |
| O=C(Nc1cccc(Cl)c1Cl)c1ccc2c(c1)N(Cc1cccc(Cl)c1)C(=O)c1ccccc1S2(=O)=O |  | inactive: 36.6% |
| Cc1nc2nc(NCc3cccc(Br)c3)[nH]n2c(=O)c1Cc1ccccc1 | inconclusive: 1.58 µM [inhibitor, full curve] |  |
| COc1ccccc1/C=C1\SC(=S)N(N2C(=O)CCCC2=O)C1=O | active: 20 µM |  |
| Cc1ccc(-n2nc3c(c2NC(=O)CC(C)C)CS(=O)C3)cc1 (configuration not stated) | active: 31.6 µM |  |
| O=S(=O)(NCc1ccccc1)c1ccc(NC(=S)NCc2ccco2)cc1 | active: 50.1 µM |  |
| CCCCn1c(NS(=O)(=O)c2ccc(C)cc2)c(S(=O)(=O)c2ccccc2)c2nc3ccccc3nc21 | inconclusive: 79.4 µM [inhibitor, single point] |  |
| Cn1nnnc1SCCNCc1ccc(F)cc1 |  | inactive: 2.03% |
| COc1cccc(C(=O)N(C)c2nnc(-c3ccncc3)s2)c1 | active: 79.4 µM |  |
| Cc1ccc(S(=O)c2snnc2C)cc1 (configuration not stated) |  | inactive: -3.55% [at 102 µM] |
| O=S(=O)(Nc1ccc(Cl)cc1)c1ccc(NS(=O)(=O)c2ccc3c(c2)OCCO3)cc1 | inconclusive: 7.94 µM [inhibitor, partial curve, poor fit] |  |
| COc1ccc(NC(=O)CN(C)C(=O)c2cccc(Oc3ccccc3)c2)cc1 | inconclusive: 6.31 µM [inhibitor, single point] |  |
| CCOc1ccc(N(CC(=O)NC2CCCC(C)C2C)S(=O)(=O)c2c(C)noc2C)cc1 (configuration not stated) | inconclusive: 89.1 µM [inhibitor, single point] |  |
